Source: PubChem BioAssay AID712 (Emory University Molecular Libraries Screening Center, 2007)
Some entries of the source have several records that differ or are many. They are shown here; other results are not. How the calls were made is not given here. The source may hold further records. Results that share an entry are repeats across runs, samples, wells, individuals or studies. Marks in square brackets tell the records apart. Letters count within one entry.

Biological target: Heat shock protein HSP 90-alpha (Homo sapiens) (UniProt P07900)
Test: tumor Hsp90 inhibitor potency, dose response (AID 712)
Settings: Hsp90 inhibition assay

SMILES	IC50
Nc1ccc(O)c2ncccc12	27.6 µM [sample A] and 1.56 µM [sample B]
Nc1ccc2ncccc2c1	inactive [sample A] and inactive: > 50 µM [sample B]
